# According to PMC4336329 (PLoS ONE, 2015):
# Hit rate of the full screen: of about 310,000 compounds, about 2,200 (0.71%) showed an effect of 50% or more. The effect is printed as a negative number. This is one part of the list.
# Molecular target: human ether-à-go-go-related gene (hERG) potassium channel (human, UniProt Q12809)
# Test: primary screen, population patch clamp on CHO cells stably expressing hERG
# Chain of human ether-à-go-go-related gene (hERG) potassium channel (Q12809 whole entry, looked up): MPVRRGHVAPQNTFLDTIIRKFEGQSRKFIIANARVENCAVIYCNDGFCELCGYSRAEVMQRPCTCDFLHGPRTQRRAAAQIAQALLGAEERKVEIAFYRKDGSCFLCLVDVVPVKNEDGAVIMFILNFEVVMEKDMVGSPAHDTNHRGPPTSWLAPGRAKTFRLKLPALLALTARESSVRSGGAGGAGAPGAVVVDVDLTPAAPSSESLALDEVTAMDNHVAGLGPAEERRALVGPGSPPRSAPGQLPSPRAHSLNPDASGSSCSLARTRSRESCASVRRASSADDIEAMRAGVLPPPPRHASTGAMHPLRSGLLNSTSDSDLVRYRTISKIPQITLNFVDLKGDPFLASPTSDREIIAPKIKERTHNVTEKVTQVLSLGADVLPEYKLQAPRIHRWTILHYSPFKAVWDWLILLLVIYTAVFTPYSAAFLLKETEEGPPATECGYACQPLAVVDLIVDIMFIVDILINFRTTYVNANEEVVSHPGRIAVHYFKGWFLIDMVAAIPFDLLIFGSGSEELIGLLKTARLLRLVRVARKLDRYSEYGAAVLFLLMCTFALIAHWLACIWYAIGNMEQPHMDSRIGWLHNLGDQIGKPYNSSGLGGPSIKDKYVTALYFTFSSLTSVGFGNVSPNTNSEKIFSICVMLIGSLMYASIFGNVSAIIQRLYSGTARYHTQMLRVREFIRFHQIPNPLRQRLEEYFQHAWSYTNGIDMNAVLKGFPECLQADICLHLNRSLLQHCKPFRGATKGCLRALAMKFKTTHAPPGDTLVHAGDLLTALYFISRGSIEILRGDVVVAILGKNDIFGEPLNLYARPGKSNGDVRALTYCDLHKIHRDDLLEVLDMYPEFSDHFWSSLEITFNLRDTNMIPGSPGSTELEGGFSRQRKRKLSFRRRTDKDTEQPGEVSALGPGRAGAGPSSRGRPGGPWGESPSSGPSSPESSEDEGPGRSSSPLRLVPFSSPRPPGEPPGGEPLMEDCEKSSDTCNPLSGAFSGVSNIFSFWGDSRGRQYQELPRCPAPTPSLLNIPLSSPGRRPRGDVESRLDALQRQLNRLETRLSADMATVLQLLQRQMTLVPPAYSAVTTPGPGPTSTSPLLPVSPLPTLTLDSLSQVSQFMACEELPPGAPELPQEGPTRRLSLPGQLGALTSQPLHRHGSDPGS
row,Compound,"hERG current change (%, negative = inhibition) at 1uM [%]"
1,CCC1COCCS(=O)(=O)N1Cc1cccc(Cl)c1 (stereo not shown),-0.974
2,COc1ccc(S(=O)(=O)N2CCCCC2)cc1NC(=O)C1CCCC1,-1.49
3,CC1CC(C)(C)N(C(=O)NC2CCCCC2)c2ccccc21 (stereo not shown),17.6
4,Cc1nn(Cc2ccc(Cl)c(Cl)c2)c(C)c1NC(=O)c1sc2ccccc2c1Cl,16.2
5,COc1ccc(-c2nc(NC(=O)CSCCO)sc2C)cc1,5.01
6,COc1ccccc1CNC(=O)c1cccc(S(=O)(=O)N2CCN(c3ccc(F)cc3)CC2)c1,4.8
7,C/C(=N\NC(=O)c1ccc(NS(=O)(=O)c2cccs2)cc1)c1ccc(O)cc1O,8.53
8,CCCc1nnc(SCC(=O)Nc2ccccc2F)o1,9.75
9,O=C(COc1ccc(Cl)cc1)Nc1ccc2[nH]ncc2c1,9.2
10,Cc1nc2ccccc2n1CC(=O)OCC(=O)NCCc1ccccc1,18.8
11,COC(=O)c1[nH]c2ccc(C)cc2c1NC(=O)Oc1ccccc1,9.44
12,CCOC(=O)c1c(NC(=O)C2CCCCC2)sc2c1CCN(C(C)C)C2.Cl,-42
13,CC(=O)N1CCN=C1SCc1ccc(C(F)(F)F)cc1,7.91
14,CCOc1cccc(SCc2noc(C(=O)NC(C)C)c2C(=O)O)c1,2.57
15,O=C(CSc1nncs1)NNC(=O)c1ccco1,15
16,CCOC(=O)N1CCN(C(=O)c2ccc(C)c(S(=O)(=O)N3CCCCC3)c2)CC1,-2.8
17,COc1cc(/C=N/n2c(C)nc3ccccc3c2=O)ccc1O,15.5
18,CCn1cnc2sc(C(=O)O)c(C)c2c1=O,17.9
19,Cc1ccc(OCCSc2nc3ccccc3n2CC(=O)O)cc1,19
20,CCOC(=O)c1c(/N=C/C2C(=O)CC(C)(C)CC2=O)sc2c1CCCC2,13.1
21,CCCNC(=O)C1(CC2CC(c3ccccc3)=NO2)CCN(C(=O)c2cc(OCC)c(OCC)c(OCC)c2)CC1 (stereo not shown),8.81
22,CCOC(=O)/C(C#N)=C/C=C1\C=Cc2ccccc2N1CC,14.8

row,Compound,"hERG current change (%, negative = inhibition) at 1uM [%]"
1,Cc1ccc(CNC(=O)C2CC3Cn4c(nc5cc(Cl)c(Cl)cc54)C3N2C)o1 (stereo not shown),-19.7
2,Cc1c(C)c2ccc(OCC(=O)NCCN3CCOCC3)cc2oc1=O,24.1
3,CN(C(=O)c1c[nH]c(=O)cc1C(F)(F)F)c1ccc(Cl)cc1,10.8
4,CN(C)c1oc(-c2ccco2)nc1S(=O)(=O)c1ccc(Br)cc1,-2.53
5,O=C(O)c1cccc(S(=O)(=O)Nc2ccc3oc(=O)sc3c2)c1,5.37
6,CCc1ccc(C(=O)/C=C/c2ccc([N+](=O)[O-])o2)cc1,6.03
7,O=C1NC[C@H](c2ccccc2)N(CCc2cc(C(F)(F)F)cc(C(F)(F)F)c2)C1=O,-3.42
8,COc1ccc2cc(C(=O)NCc3ccccc3)c(=Nc3ccc(C(=O)O)cc3)oc2c1,13.9
9,CC(C)Cc1ccc(C(C)C(N)=Nc2ccc(O)cc2)cc1.Cl (stereo not shown),-71.8
10,O=C(Nc1cccc(C(F)(F)F)c1)c1cnccn1,7.75
11,O=C1CC(N2CCC(c3nc4ccccc4o3)CC2)C(=O)N1c1ccc(Cl)c(C(F)(F)F)c1 (stereo not shown),7.36
12,CCCn1c(=NC(=O)c2ccco2)c(C(=O)OCC)cc2c(=O)n3ccccc3nc21,-6.68
13,COc1c(Br)cc2c(C)c(C(=O)O)oc2c1Br,9.64
14,O=C(NCCN1C(=O)S/C(=C\c2ccc(OC(F)F)cc2)C1=O)C1=COCCO1,6.28
15,Cc1nc2ccc(N3CCN(C)CC3)cc2nc1C,11.2
16,CC(=O)Nc1ccc(S(=O)(=O)N(C)CC(=O)OC(C)C(=O)N(C)Cc2ccccc2)cc1 (stereo not shown),10.4
17,O=C(CSc1nncn1-c1cccnc1)Nc1cccc([N+](=O)[O-])c1,10.7
18,COc1ccc(NS(=O)(=O)c2ccc(-c3coc(C)n3)cc2)cc1,14.6
19,CCCCS(=O)(=O)N1CCCC(C(=O)Nc2ccc(Cl)cn2)C1 (stereo not shown),5.04
20,Cn1c2c(c(=O)n(C)c1=O)C(c1cccc([N+](=O)[O-])c1)Nc1ccccc1O2 (stereo not shown),0.499
21,CCCCC(=O)NC(c1ccc(N(C)C)cc1)c1ccc2cccnc2c1O (stereo not shown),11.5
22,O=C(NCCC1=CCCCC1)C1CCN(S(=O)(=O)c2ccccc2)CC1,25.5

row,Compound,"hERG current change (%, negative = inhibition) at 1uM [%]"
1,O=S(=O)(NCc1ccccc1)c1ccc(NC(=S)NCc2ccco2)cc1,4.83
2,Cc1cccc(C(=O)Nc2ccc(NC(=O)CN3CCOCC3)cc2)c1,0.661
3,CC1=C(C(=O)Nc2ccccc2)C(c2cccs2)n2nnnc2N1 (stereo not shown),6.76
4,CCCn1c(SCC(=O)Nc2nnc(CC)s2)nnc1-c1ccncc1,12.3
5,Cc1nn(-c2ccccc2)c(C)c1/C=N/NC(=O)c1cc(-c2ccccc2)n[nH]1,0.273
6,COc1ccc(OC)c(C(C)NC(C)=O)c1 (stereo not shown),9.63
7,COc1cccc(NC(=O)Nc2nc(SC)ns2)c1,14.2
8,Nc1ccccc1C(=O)NCc1ccco1,9.22
9,CCCCn1c(N)c(N(CC(C)C)C(=O)c2ccc(S(=O)(=O)N3CCCCCC3)cc2)c(=O)[nH]c1=O,8.66
10,O=[N+]([O-])c1cc(Cl)ccc1NCCc1ccccn1,11.1
11,Cc1cc(/C=C2\SC(=Nc3ccc(N4CCOCC4)cc3)N(C)C2=O)c(C)n1-c1cccnc1,17.1
12,Cc1noc(C)c1C(c1ccccc1)S(=O)(=O)c1ccccc1 (stereo not shown),23
13,Cc1ccc(NC(=S)NCc2cccs2)cc1,-4.08
14,COC(=O)c1cc(=O)n(Cc2ccc3c(c2)OCO3)c(=Nc2ccccc2)s1,11.3
15,COc1ccccc1CNC(=O)c1ccc(CS(=O)Cc2cccc(Cl)c2)o1 (stereo not shown),-7.42
16,O=c1[nH]c(C2CCN(S(=O)(=O)Cc3ccccc3)CC2)nc2c1nnn2Cc1ccccc1,15.2
17,CC1CCN(C(=O)c2ccc(NS(=O)(=O)c3ccc4[nH]c(=O)[nH]c4c3)cc2)CC1,5
18,COc1ccc(-c2cc(C)no2)cc1S(=O)(=O)N1CCCN(Cc2ccccc2Cl)C1,9.61
19,CCC(C)c1ccc(NS(=O)(=O)c2c(C)[nH]c(=O)[nH]c2=O)cc1 (stereo not shown),6.15
20,CC(C)CC(=O)c1c[nH]c(C(=O)NCc2cccs2)c1,4.99
21,O=C(CCCOc1ccc(Cl)cc1)N1CCOCC1,3.39
22,C/C(=N\NC(=S)NCc1ccccc1)c1ccc(C#N)cc1,12.3

row,Compound,"hERG current change (%, negative = inhibition) at 1uM [%]"
1,Cc1nc(CNS(=O)(=O)c2ccc3ccccc3c2)cs1,14.8
2,CCN(C(=O)COC(=O)c1ccco1)c1c(N)n(Cc2ccccc2)c(=O)[nH]c1=O,4.1
3,O=C(OCC(=O)N1CCCc2ccccc21)c1cc(S(=O)(=O)N2CCOCC2)ccc1O,-12.5
4,CC1(C)CC(=O)C2=C(C1)OC1=C(C(=O)CC(C)(C)C1)C2c1ccc(O)cc1O,-13.7
5,CC(=O)c1ccc(S(=O)(=O)N(C)CC(=O)NCC2CCCCC2)cc1,6.7
6,C=CCn1c(=O)c(C(=O)NCc2ccc3c(c2)OCO3)c(O)c2cc(OC)c(OC)cc21,14
7,COc1ccccc1NS(=O)(=O)c1ccc(S(=O)(=O)N2CCOCC2)cc1,1.8
8,O=C(COC(=O)c1cccc(O)c1)NC(=O)Cc1ccccc1,3.34
9,Cc1ccc(C(=O)NNC2=NC(C)(C)Cc3ccccc32)cc1.Cl,5.77
10,OC1C[N+]2(CCCCC2)C1.[Cl-],7.82
11,CN(c1cccc(NC(=O)c2ccccc2N(C)S(=O)(=O)c2ccccc2)c1)S(C)(=O)=O,13.5
12,COC(=O)c1cccc2c1-c1ccccc1/C2=N/O,-8.96
13,COc1ccccc1N1CCN(C(=O)c2cc(=O)c3ccc(C)cc3o2)CC1,1.21
14,OC(CNCCc1ccccc1)COc1ccc(OCC(O)CNCCc2ccccc2)cc1 (stereo not shown),9.96
15,Clc1ccc(-c2nnn(Cc3nc4ccccc4s3)n2)cc1,3.79
16,O=C(Nc1ccc(CN2CCOCC2)cc1)c1cc2ccccc2o1,-12.1
17,O=C(CC(=O)c1ccccc1)Nc1cc(C(F)(F)F)ccc1Cl,3.87
18,COc1ccccc1NC(=O)Nc1ccc(C(N)=O)cc1,3.57
19,Cc1nnc(NC(=O)Cn2nc(C)c3ccccc3c2=O)s1,12
20,Nc1ccc(C(=O)N2CCN(S(=O)(=O)c3ccc4c(c3)OCCO4)CC2)cc1[N+](=O)[O-],10.2
21,CN(CC(=O)Nc1ccc(Cl)c(C(F)(F)F)c1)C(=O)c1cn2ccccc2n1,5.27
22,NNC(=O)C1=NOC(CNc2ncc(C(F)(F)F)cc2Cl)C1 (stereo not shown),-1.7
